Assay results taken from a collection of fitness landscapes (doi:10.1016/j.celrep.2020.107928).
Whole data set: some 81,000 sequences, median “one-hybrid fitness for binding NBS DNA” near -0.1, cut for the highest 2% near 0.36. Some of the results follow.

B1: Caulobacter ParB omega fusion; a variant is named by its letters at X, in order, B8GW30 (parent)
chain: MESVVVGEPGMSEGRRGLGRGLSALLGEVDAAPAQAPGEQLGGSREAPIEILQRNPDQPRRTFREEDLEDLSNSIREKGVLQPILVRPSPDTAGEYQIVAGERAWRAAQRAGLKTVPIMVRELDDLAVLEIGIIENVQRADLNVLEEALSYKVLMEKFERTQENIAQTIGKSXSHVANXMRLLXLPDEVQSYLVSGELTAXHARAIAAAADPVALAKQIIEGGLSVRETEALARKAPNLSAGKSKGGRPPRVKDTDTQALESDLSSVLGLDVSIDHRGSTGTLTITYATLEQLDDLCNRLTRGI

Variants of: B1
Assay: one-hybrid fitness for binding NBS DNA (the Noc-binding site; scaled: cognate 1, non-cognate 0); higher = stronger binding
Conditions: with NBS DNA site
Outline: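 Bacterial one-hybrid selection in E. coli USO rpoZ- hisB- pyrF- with a HIS3 reporter carrying the site 19 bp from the promoter, screening Caulobacter ParB libraries with four specificity codons randomised (NNS). Cells grew 48 hours at 37°C on M9-minus-histidine plus 0.1 mM IPTG and 5 mM 3-AT. Plasmids before and after selection were Illumina-sequenced, three replicate libraries pooled, and variants under 10 reads dropped. Fitness is the log change in variant-to-wild-type read ratio, rescaled to cognate 1, non-cognate 0.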

Row | Variant | one-hybrid fitness for binding NBS DNA
1 | EPMC | ≤ 0.2
2 | EFGL | ≤ 0.2
3 | NVQG | ≤ 0.2
4 | MITG | ≤ 0.2
5 | KAMF | ≤ 0.2
6 | TPPP | ≤ 0.2
7 | RSMR | 0.369
8 | RSRS | 0.593
9 | IKHR | ≤ 0.2
10 | QAIR | 0.308
11 | RDLM | ≤ 0.2
12 | WDAC | ≤ 0.2
13 | SDAE | ≤ 0.2
14 | RITT | 0.421
15 | KTGL | ≤ 0.2
16 | VMVS | ≤ 0.2
17 | NQPI | ≤ 0.2
18 | ELSS | ≤ 0.2
19 | SKIS | ≤ 0.2
20 | PWQL | ≤ 0.2
21 | SLQL | ≤ 0.2
22 | STLR | ≤ 0.2
23 | MTEW | ≤ 0.2
24 | LPLD | ≤ 0.2

Row | Variant | one-hybrid fitness for binding NBS DNA
25 | PEIR | ≤ 0.2
26 | HNSV | ≤ 0.2
27 | SMEW | ≤ 0.2
28 | ELVM | ≤ 0.2
29 | FSAT | ≤ 0.2
30 | IYRH | ≤ 0.2
31 | SCAK | ≤ 0.2
32 | YYES | ≤ 0.2
33 | IAPW | ≤ 0.2
34 | GFGR | ≤ 0.2
35 | SAVT | ≤ 0.2
36 | KYDC | ≤ 0.2
37 | VMMF | ≤ 0.2
38 | WWSA | ≤ 0.2
39 | HDML | ≤ 0.2
40 | PKHQ | ≤ 0.2
41 | LAFR | ≤ 0.2
42 | RLMA | ≤ 0.2
43 | CPSI | ≤ 0.2
44 | VRVN | ≤ 0.2
45 | ANIR | ≤ 0.2
46 | KERG | ≤ 0.2
47 | HAEC | ≤ 0.2
48 | RWAN | ≤ 0.2

Row | Variant | one-hybrid fitness for binding NBS DNA
49 | YVTF | ≤ 0.2
50 | SDKC | ≤ 0.2
51 | WYGT | ≤ 0.2
52 | YDES | ≤ 0.2
53 | LSYE | ≤ 0.2
54 | WTAT | ≤ 0.2
55 | CMLS | ≤ 0.2
56 | TPDA | ≤ 0.2
57 | RDEF | ≤ 0.2
58 | WLGS | ≤ 0.2
59 | HTSI | ≤ 0.2
60 | FYPY | ≤ 0.2
61 | NNLL | ≤ 0.2
62 | DLCA | ≤ 0.2
63 | GCRR | ≤ 0.2
64 | FTWS | ≤ 0.2
65 | VYKQ | ≤ 0.2
66 | SSLW | ≤ 0.2
67 | MHPT | ≤ 0.2
68 | PWRG | ≤ 0.2
69 | HLRH | ≤ 0.2
70 | EYHN | ≤ 0.2
71 | MYIR | ≤ 0.2
72 | TQKF | ≤ 0.2

Row | Variant | one-hybrid fitness for binding NBS DNA
73 | LIKF | ≤ 0.2
74 | LYMN | ≤ 0.2
75 | VSLW | ≤ 0.2
76 | RVPF | ≤ 0.2
77 | HCVK | ≤ 0.2
78 | ERQR | ≤ 0.2
79 | YLIG | ≤ 0.2
80 | HVKG | ≤ 0.2
81 | TTHK | ≤ 0.2
82 | QYMI | ≤ 0.2
83 | PKYP | ≤ 0.2
84 | YDTN | ≤ 0.2
85 | TLPC | ≤ 0.2
86 | SPQC | ≤ 0.2
87 | LDDG | ≤ 0.2
88 | IHRR | ≤ 0.2
89 | CHSA | ≤ 0.2
90 | QKPH | ≤ 0.2
91 | LCMG | ≤ 0.2
92 | RVRN | ≤ 0.2
93 | HKSV | ≤ 0.2
94 | ECSR | ≤ 0.2
95 | ALSN | ≤ 0.2
96 | YPRD | ≤ 0.2

Row | Variant | one-hybrid fitness for binding NBS DNA
97 | ACPR | ≤ 0.2
98 | HPKR | ≤ 0.2
99 | CFLT | ≤ 0.2
100 | PHTC | ≤ 0.2
101 | NDYS | ≤ 0.2
102 | CAIM | ≤ 0.2
103 | IAAD | ≤ 0.2
104 | TGHL | ≤ 0.2
105 | NANV | ≤ 0.2
106 | AVKD | ≤ 0.2
107 | YLTD | ≤ 0.2
108 | ATVT | ≤ 0.2
109 | QMDE | ≤ 0.2
110 | TQFD | ≤ 0.2
111 | QLHF | ≤ 0.2
112 | NRQG | ≤ 0.2
113 | SEAA | ≤ 0.2
114 | SLGQ | ≤ 0.2
115 | YFTT | ≤ 0.2
116 | RAVE | ≤ 0.2
117 | RDFY | ≤ 0.2
118 | YEGF | ≤ 0.2
119 | QLHD | ≤ 0.2
120 | ASCR | ≤ 0.2

Row | Variant | one-hybrid fitness for binding NBS DNA
121 | VVCV | ≤ 0.2
122 | RTPI | ≤ 0.2
123 | SCRH | ≤ 0.2
124 | WDES | ≤ 0.2
125 | AGRW | ≤ 0.2
126 | ETNA | ≤ 0.2
127 | PDIN | ≤ 0.2
128 | LTMN | ≤ 0.2
129 | EPEG | ≤ 0.2
130 | RWPP | ≤ 0.2
131 | QRMC | 0.333
132 | AKGN | ≤ 0.2
133 | AHVL | ≤ 0.2
134 | ATPH | ≤ 0.2
135 | SGDW | ≤ 0.2
136 | SIAC | ≤ 0.2
137 | QPGH | ≤ 0.2
138 | TSPW | ≤ 0.2
139 | QCVI | ≤ 0.2
140 | LLNT | ≤ 0.2
141 | WPIP | ≤ 0.2
142 | VQGG | ≤ 0.2
143 | HCDI | ≤ 0.2
144 | LWRT | ≤ 0.2

Row | Variant | one-hybrid fitness for binding NBS DNA
145 | SMCG | ≤ 0.2
146 | KTRD | ≤ 0.2
147 | RQNM | ≤ 0.2
148 | ECPR | ≤ 0.2
149 | SMFI | ≤ 0.2
150 | RMLG | ≤ 0.2
151 | GPVY | ≤ 0.2
152 | LPPY | ≤ 0.2
153 | QGAS | ≤ 0.2
154 | PHHT | ≤ 0.2
155 | TGTK | ≤ 0.2
156 | LDCW | ≤ 0.2
157 | NTDG | ≤ 0.2
158 | NRMT | ≤ 0.2
159 | PKSL | ≤ 0.2
160 | PTEE | ≤ 0.2
161 | ICHW | ≤ 0.2
162 | NFKG | ≤ 0.2
163 | EHAV | ≤ 0.2
164 | RFTY | ≤ 0.2
165 | LHAP | ≤ 0.2
166 | QDLR | ≤ 0.2
167 | QCIW | ≤ 0.2
168 | NIAC | ≤ 0.2

Row | Variant | one-hybrid fitness for binding NBS DNA
169 | EEMF | ≤ 0.2
170 | TAKS | ≤ 0.2
171 | QRFP | 0.201
172 | PRCK | ≤ 0.2
173 | QYYE | ≤ 0.2
174 | TVHY | ≤ 0.2
175 | HNDM | ≤ 0.2
176 | THRS | ≤ 0.2
177 | PSMA | ≤ 0.2
178 | IMYG | ≤ 0.2
179 | FPLH | ≤ 0.2
180 | PGTK | ≤ 0.2
181 | TENP | ≤ 0.2
182 | LYGC | ≤ 0.2
183 | ERPA | ≤ 0.2
184 | FQAT | ≤ 0.2
185 | VYHN | ≤ 0.2
186 | FRIS | ≤ 0.2
187 | QLWN | ≤ 0.2
188 | NHFL | ≤ 0.2
189 | LPNL | ≤ 0.2
190 | SVSH | ≤ 0.2
191 | TRPA | ≤ 0.2
192 | RFVK | ≤ 0.2

Row | Variant | one-hybrid fitness for binding NBS DNA
193 | GNKR | ≤ 0.2
194 | VHPR | ≤ 0.2
195 | DQQL | ≤ 0.2
196 | QRQV | 0.397
197 | PRPL | ≤ 0.2
198 | KGIG | ≤ 0.2
199 | KYTS | ≤ 0.2
200 | MKYG | ≤ 0.2
201 | RHWS | ≤ 0.2
202 | TYNV | ≤ 0.2
203 | VHRA | ≤ 0.2
204 | GTTE | ≤ 0.2
205 | RDFK | ≤ 0.2
206 | ITGG | ≤ 0.2
207 | VSLT | ≤ 0.2
208 | DDVI | ≤ 0.2
209 | SGRQ | ≤ 0.2
210 | NEHP | ≤ 0.2
211 | QKDF | ≤ 0.2
212 | TKRL | ≤ 0.2
213 | GVCL | ≤ 0.2
214 | DNWC | ≤ 0.2
215 | VTVS | ≤ 0.2
216 | LHYD | ≤ 0.2

Row | Variant | one-hybrid fitness for binding NBS DNA
217 | NYVS | ≤ 0.2
218 | LPMY | ≤ 0.2
219 | YEKS | ≤ 0.2
220 | EVLC | ≤ 0.2
221 | WTMR | ≤ 0.2
222 | HCTS | ≤ 0.2
223 | HITN | ≤ 0.2
224 | WRDK | ≤ 0.2
225 | QAKQ | 0.408
226 | SFDY | ≤ 0.2
227 | PAYA | ≤ 0.2
228 | AWPN | ≤ 0.2
229 | QKRP | 0.261
230 | ASLA | ≤ 0.2
231 | CNSL | ≤ 0.2
232 | FGRG | ≤ 0.2
233 | SDAR | ≤ 0.2
234 | LNGN | ≤ 0.2
235 | SMAL | ≤ 0.2
236 | DSGT | ≤ 0.2
237 | FDAR | ≤ 0.2
238 | SLPN | ≤ 0.2
239 | KQFT | ≤ 0.2
240 | RDCF | ≤ 0.2

Row | Variant | one-hybrid fitness for binding NBS DNA
241 | QNNW | ≤ 0.2
242 | SPYH | ≤ 0.2
243 | DMAC | ≤ 0.2
244 | RDSE | ≤ 0.2
245 | VGDC | ≤ 0.2
246 | DLND | ≤ 0.2
247 | HLGG | ≤ 0.2
248 | VSPK | ≤ 0.2
249 | GKQW | ≤ 0.2
250 | DLTT | ≤ 0.2
251 | IGGM | ≤ 0.2
252 | KCGG | ≤ 0.2
253 | GYMC | ≤ 0.2
254 | VVSY | ≤ 0.2
255 | IVFR | ≤ 0.2
256 | CSSC | ≤ 0.2
257 | QENL | ≤ 0.2
258 | AFER | ≤ 0.2
259 | FSIG | ≤ 0.2
260 | HPPG | ≤ 0.2
261 | STAM | ≤ 0.2
262 | LKAY | ≤ 0.2
263 | VLLL | ≤ 0.2
264 | YHQT | ≤ 0.2

Row | Variant | one-hybrid fitness for binding NBS DNA
265 | HEPK | ≤ 0.2
266 | HKRT | ≤ 0.2
267 | KNHM | ≤ 0.2
268 | AMTE | ≤ 0.2
269 | STDE | ≤ 0.2
270 | TCSG | ≤ 0.2
271 | FSCS | ≤ 0.2
272 | RYRH | 0.339
273 | SHRT | ≤ 0.2
274 | GSLT | ≤ 0.2
275 | NALK | ≤ 0.2
276 | DMQL | ≤ 0.2
277 | QFTS | ≤ 0.2
278 | LGKN | ≤ 0.2
279 | HPHS | ≤ 0.2
280 | HFTG | ≤ 0.2
281 | KCHW | ≤ 0.2
282 | DTLF | ≤ 0.2
283 | SDCD | ≤ 0.2
284 | RGWY | ≤ 0.2
285 | RAYG | ≤ 0.2
286 | KNSH | ≤ 0.2
287 | TGIR | ≤ 0.2
288 | APSY | ≤ 0.2

Row | Variant | one-hybrid fitness for binding NBS DNA
289 | PGPW | ≤ 0.2
290 | LWSD | ≤ 0.2
291 | PTAM | ≤ 0.2
292 | LLRD | ≤ 0.2
293 | DTSN | ≤ 0.2
294 | VWMT | ≤ 0.2
295 | ISAT | ≤ 0.2
296 | FGLT | ≤ 0.2
297 | KTFS | ≤ 0.2
298 | CTTA | ≤ 0.2
299 | GDNM | ≤ 0.2
300 | ERQC | ≤ 0.2
301 | MSKR | ≤ 0.2
302 | NQLD | ≤ 0.2
303 | SYIT | ≤ 0.2
304 | IHSW | ≤ 0.2
305 | RQIR | ≤ 0.2
306 | VFPL | ≤ 0.2
